# Reference: PubChem BioAssay AID588855 (National Center for Advancing Translational Sciences (NCATS), 2011)
# Out of some 410,000 compounds screened, about 5,000 (1.2%) were called active. This list was built around the results that the source calls inconclusive (neither active nor inactive); the mix of calls is not that of the screen. The call rests on the fitted dose curve; in most records, active means well fitted inhibition curve with a large enough effect; inconclusive means small, poorly fitted or top-dose-only effect; inactive means no such curve, though single readings can be large or run the other way. Potencies of inconclusive entries are doubtful fits and often do not repeat.
# Assay: qHTS for Inhibitors of TGF-b; further: nearly all actives have a fitted effect of over 65% in size
# Details: HepG2 CAGA-GFP TGF-b/SMAD3 reporter, GFP fluorescence, 18 h, TGF-beta stimulated, 500 pg/mL final; series mostly up to 46.1 µM
# Procedure, shortened: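 HEPG2 CAGA-GFP cells (1000/well, DMEM with 1% FBS) were pre-incubated 2 h at 37 degrees C, given compound by pin tool, then stimulated with TGF-beta at 500 pg/mL final for 18 h before per-cell GFP fluorescence imaging.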
# Potency means the concentration at half of the fitted maximal effect; tags describe the fitted curve by direction and shape.
row,SMILES,Potency
1,COC(=O)Cc1c(O)ccn(Cc2cccc3ccccc23)c1=O,"inconclusive: 3.55 µM [inhibitor, single point]"
2,COC(=O)CSc1nc(NCC(C)C)nc(N2CCOCC2)n1,"inconclusive: 20 µM [inhibitor, single point]"
3,O=C(CS(=O)CC(=O)N(c1cccc(F)c1)C(C(=O)NC1CCCCC1)c1ccco1)Nc1ccc(F)cc1 (centres undefined),"inconclusive: 0.891 µM [inhibitor, partial curve, poor fit]"
4,O=C(NNC(=O)c1ccc(Br)o1)c1ccc(NC(=O)c2ccccc2)cc1,"inconclusive: 15.8 µM [inhibitor, partial curve, poor fit]"
5,CC(CCc1ccccc1)NC(=O)C1CCCN(C(=O)c2cc3sccc3n2C)C1 (centres undefined),"inconclusive: 12.6 µM [inhibitor, partial curve, poor fit]"
6,CCOc1ccccc1C(=O)Nc1ccc2nc(N(CC)CC)cc(C)c2c1,inactive
7,O=C1Nc2ccccc2N=C(c2ccccc2)C1N(C(=O)c1ccnc2ccccc12)c1ccccc1 (centres undefined),"inconclusive: 25.1 µM [inhibitor, single point]"
8,Cc1cccc(C(=O)Nc2nc(C)c(C(=O)Nc3ccc4c(c3)CCC4)s2)c1,"inconclusive: 3.98 µM [inhibitor, partial curve, poor fit]"
9,COc1cccc(CNC(=O)c2cc3c(s2)-c2ccccc2OC3)c1,"inconclusive: 35.5 µM [inhibitor, single point]"
10,CCC(=C(c1ccc(OC)cc1)c1ccc(OC)cc1)c1cn(CC(O)CN(CCO)CCO)c2ccccc12 (centres undefined),"inconclusive: 25.1 µM [inhibitor, single point]"
11,Cc1onc(-c2ccccc2)c1-c1nnc(COC(=O)c2ccc(O)cc2)o1,inactive
12,CC(C)CCSc1cc(NCCO)c([N+](=O)[O-])c2nonc12,"inconclusive: 35.5 µM [inhibitor, single point]"
13,CC(C)COC(=O)N(C)c1ccc(C(O)(C(F)(F)F)C(F)(F)F)cc1,"inconclusive: 25.1 µM [inhibitor, single point]"
14,O=C(Nc1ccc(N2CCN(Cc3ccccc3F)CC2)cc1)c1ccc([N+](=O)[O-])o1,"inconclusive: 31.6 µM [inhibitor, single point]"
15,C=CCN1C(=O)C(Cc2ccccc2Cl)SC1=Nc1ccc(C(=O)O)cc1 (centres undefined),inactive
16,O=C1NC[C@H](Cc2ccccc2)N(C[C@@H]2CCCN2C[C@H](Cc2ccccc2)N2C[C@H](Cc3ccccc3)N(CC3CCCCC3)C(=O)C2=O)C1=O,active: 17.8 µM
17,CC1(C)CC(N2CCN(Cc3ccccc3)CC2)=CC(=[N+]2CCCCC2)C1,"inconclusive: 11.2 µM [inhibitor, partial curve]"
18,CCC[C@@H](CNC)NC[C@H](Cc1ccccc1)NCCCCc1ccccc1,"inconclusive: 12.6 µM [inhibitor, partial curve, poor fit]"
19,CCN(CC(=O)NCc1ccc(Cl)cc1)C(=O)CSc1ccc(Br)cc1,"inconclusive: 28.2 µM [inhibitor, single point]"
20,CCOC(=O)c1c(NC(=O)C(Sc2ccccc2)c2ccccc2)sc(C(=O)N(C)C)c1C (centres undefined),"inconclusive: 35.5 µM [inhibitor, single point]"

row,SMILES,Potency
1,Cc1ccc(-c2nnc(N3CCN(C(=O)CSc4ncn[nH]4)CC3)c3ccccc23)cc1,inactive
2,CCOC(=O)c1c(S(=O)(=O)N2CCCC(C(=O)Nc3cccc(Cl)c3)C2)c(C)n(C)c1C (centres undefined),"inconclusive: 22.4 µM [inhibitor, partial curve, poor fit]"
3,C(=N\N=C\c1cccnc1)/c1cccnc1,"inconclusive: 17.8 µM [inhibitor, partial curve, poor fit]"
4,O=C(N/N=C/c1cccc([N+](=O)[O-])c1O)c1cccs1,"inconclusive: 35.5 µM [inhibitor, single point]"
5,O=C(N[C@H]1CCC(=O)N(CCSc2ccc(Br)cc2)CC1)OCc1ccccc1,active: 7.08 µM
6,CCOC(=O)C1=C(C)NC2=C(C(=O)c3ccccc32)C1c1cccc2ccccc12 (centres undefined),"inconclusive: 0.562 µM [inhibitor, full curve, poor fit]"
7,COc1ccc(N(C)C(=O)c2cn(C3CCCCC3)c(=O)c3c2c2ccccc2n3C)cc1,"inconclusive: 31.6 µM [inhibitor, single point]"
8,CCCCCCn1c(=O)n2n(c1=O)[C@@H]1CN(S(=O)(=O)c3ccc(C)cc3)C[C@]1(O)[C@@H](OC(=O)Nc1cccs1)C2,"inconclusive: 35.5 µM [inhibitor, single point]"
9,O=C(c1ccoc1)N1CCN(c2cc(-c3ccco3)nc3cc(-c4ccccc4)nn23)CC1,"inconclusive: 11.2 µM [inhibitor, single point]"
10,Cc1ccc(S(=O)(=O)N2CCN(C(=O)CC(C)n3nc(C)c(Cl)c3C)CC2)cc1C (centres undefined),"inconclusive: 35.5 µM [inhibitor, single point]"
11,O=c1cc(-c2ccccc2Cl)oc2c([N+](=O)[O-])c(O)cc(O)c12,active: 12.6 µM
12,O=C(C[n+]1csc2ccccc21)c1ccc(O)c(O)c1,"inconclusive: 22.4 µM [inhibitor, single point]"
13,CCn1ccc2cc(S(=O)(=O)N3CCCN(C(=O)Nc4cccc(Cl)c4)CC3)ccc21,"inconclusive: 35.5 µM [inhibitor, single point]"
14,Cc1ccc(NC(=O)NCCc2c(C)nn(C)c2C)cc1Cl,inactive
15,C/C(=N/NC(=O)c1ccc(Br)o1)c1cccc(NC(=O)c2ccc(C)o2)c1,inactive
16,COc1ccccc1-c1nnc(SCC(=O)c2ccc(Cl)cc2)n1-c1ccccc1,"inconclusive: 20 µM [inhibitor, single point]"
17,CCCCc1ccc(NC(=O)c2cc3c(=O)n4ccccc4nc3s2)cc1,inactive
18,N#CCC(=O)c1sccc1-n1cccc1,"inconclusive: 35.5 µM [inhibitor, single point]"
19,COc1ccc(C[C@H]2CN3C(=NC[C@@H]3Cc3ccccc3)N2CCNC(=O)CCC2CCCCC2)cc1,"inconclusive: 20 µM [inhibitor, single point]"
